Measured values taken from ChEMBL document CHEMBL4888484, “Replenishing the malaria drug discovery pipeline: Screening and hit evaluation of the MMV Hit Generation Library 1 (HGL1) against asexual blood stage Plasmodium falciparum ,using a nano luciferase reporter read-out” (2022).
In all, about 150,000 compounds went through this assay and about 540 (0.36%) showed an effect of 50% or more. Some of the results follow.

tested on: Plasmodium falciparum; assay: Primary screen in NF54 nanoGlo assay, in single point, at 2uM, 72h; a lower Z score goes with more inhibition; assay type: functional, Erythrocyte; details: timepoint 72 hour

Q: Which “% Inhibition” value does the source give for `Cc1ccc(CN2[C@H]3C[C@H]4CCC3(CS2(=O)=O)C4(C)C)c(C)n1` here?
A: -1%

Q: What about the Z score of the same molecule?
A: 0.1

Q: What does the source list for `O=C(Cn1c(=O)ccc2cc(S(=O)(=O)N3CCCC3)ccc21)N1CCN(C(=O)c2ccco2)CC1`?
A: % Inhibition: -15%; Z score: 1.82

Q: With `CN(Cc1ccc(Cl)s1)C(=O)c1ccc(N(C)C)cc1` as the molecule, how does the “% Inhibition” value read?
A: -10%

Q: And the Z score?
A: 1.92

Q: What does the source list for `COc1ccccc1N1CCN(C(=O)c2ccc(C#CC3(O)CCCCC3)cc2)CC1`?
A: % Inhibition: -21%; Z score: 3.34

Q: Which “% Inhibition” value does the source give for `CC(C)c1nc(CN2CCC(n3ccnc3)CC2)n[nH]1` here?
A: -10%

Q: And the Z score?
A: 1.46

Q: `O=S1(=O)CCC(CCNCc2ccsc2C(F)(F)F)CC1` was tested. Which “% Inhibition” value did it give?
A: -14%

Q: And the Z score?
A: 1.41

Q: `O=C(c1cccc(CN2CCS(=O)(=O)CC2)c1)N1CC2(CC2)c2ccccc21` was tested. Which “% Inhibition” value did it give?
A: -17%

Q: What about the Z score of the same molecule?
A: 2.69

Q: How did the “% Inhibition” value turn out when `C[C@H]1C(=O)N(C)C[C@@H](CNC(=O)Nc2ccccc2C(F)(F)F)N1Cc1cccnc1` was run?
A: -13%

Q: And the Z score?
A: 1.9

Q: Which “% Inhibition” value does the source give for `O=C(c1ccoc1)N1CCc2n[nH]c(=O)cc2C1` here?
A: -10%

Q: What about the Z score of the same molecule?
A: 1.14

Q: For `CN1CCN(C(=O)CCc2ccc(-c3ccccc3)cc2)CC1=O`, which “% Inhibition” value is on record?
A: -10%

Q: And the Z score?
A: 1.7

Q: With `COc1cn(CC(=O)Nc2cccc3ccccc23)c(CN2CCCCC2)cc1=O` as the molecule, how does the “% Inhibition” value read?
A: -6%

Q: And the Z score?
A: 1.08

Q: For `O=C(CC[C@H]1CCCN(Cc2ccc3c(c2)OCCO3)C1)N1CCOCC1`, which “% Inhibition” value is on record?
A: -11%

Q: What about the Z score of the same molecule?
A: 2.13

Q: What does the source list for `CCCc1cc(CN(C)C(=O)CC[C@@H]2NC(=O)NC2=O)n[nH]1`?
A: % Inhibition: -3%; Z score: 0.39

Q: What does the source list for `COc1c(C(=O)Nc2ccc3ccccc3c2)c(C)nn1C`?
A: % Inhibition: 26%; Z score: -2.97

Q: For `O=C(Nc1ccc(F)c(F)c1)N1CCN(CCc2cnccn2)CC1`, which “% Inhibition” value is on record?
A: -8%

Q: And the Z score?
A: 1.44

Q: Which results are given for `CC(C(=O)NC[C@H]1CCCOC1)=C1CCC1`?
A: % Inhibition: -10%; Z score: 1.05

Q: Which results are given for `CC(C)[C@H](NS(=O)(=O)CC1CCCCC1)c1ccccc1`?
A: % Inhibition: -12%; Z score: 1.23

Q: Which results are given for `O=C(c1cc(Br)ccc1Cl)N1CC(Nc2cccnn2)C1`?
A: % Inhibition: -15%; Z score: 1.8

Q: Which results are given for `COc1ccc(F)cc1-c1nc2c([nH]1)c(C)nn2Cc1ccccc1`?
A: % Inhibition: -10%; Z score: 1.54

Q: `O=C(Cc1ccccc1Cl)Nc1nnc([C@H]2CC(=O)N(c3ccc(F)cc3)C2)o1` was tested. Which “% Inhibition” value did it give?
A: 7%

Q: And the Z score?
A: -1.03

Q: Which results are given for `COc1cc(-c2nnc(COc3ccc4ccccc4c3)o2)cc(OC)c1OC`?
A: % Inhibition: -7%; Z score: 0.93

Q: `Cc1cc(C#N)nc(N2CC(C)(C)[C@@H]2C(C)C)n1` was tested. Which “% Inhibition” value did it give?
A: 4%

Q: What about the Z score of the same molecule?
A: -0.51

Q: For `Oc1ccccc1-c1nc2cnccn2c1NC1CCCC1`, which “% Inhibition” value is on record?
A: -9%

Q: What about the Z score of the same molecule?
A: 1.34
